The list shows a part of the results.

B1: PhoQ; a variant is named by its letters at X, in order, P23837 (parent)
chain: MKKLLRLFFPLSLRVRFLLATAAVVLVLSLAYGMVALIGYSVSFDKTTFRLLRGESNLFYTLAKWENNKLHVELPENIDKQSPTMTLIYDENGQLLWAQRDVPWLMKMIQPDWLKSNGFHEIEADVNDTSLLLSGDHSIQQQLQEVREDDDDAEMTHSVAVNVYPATSRMPKLTIVVVDTIPVELKSSYMVWSWFIYVLSANLLLVIPLLWVAAWWSLRPIEALAKEVRELEEHNRELLNPATTRELTSLVRNLNRLLKSERERYDKYRTTLTDLTHSLKTPLXXLQXXLRSLRSEKMSVSDAEPVMLEQISRISQQIGYYLHRASMRGGTLLSRELHPVAPLLDNLTSALNKVYQRKGVNISLDISPEISFVGEQNDFVEVMGNVLDNACKYCLEFVEISARQTDEHLYIVVEDDGPGIPLSKREVIFDRGQRVDTLRPGQGVGLAVAREITEQYEGKIVAGESMLGGARMEVIFGRQHSAPKDE

The variants in the assay derive from B1. Briefly: enrichment ratio after two sorts for PhoP signalling (ratio (wild type AVST 3.29)); higher = more functional. To be noted: with PhoP (E. coli).
For WVIR, the enrichment ratio is at most 0.25. Regarding EVRH, the enrichment ratio is at most 0.25. For VIKY the value was at most 0.25; for HPSG, at most 0.25. For NARP the value was at most 0.25; for YMNM, at most 0.25; for LDWM, at most 0.25.

Take EYSF: the enrichment ratio is at most 0.25.

On to ATTK, for which the enrichment ratio was determined as 10.4. Take PSVN: the enrichment ratio is at most 0.25.

For GPLM, the enrichment ratio was at most 0.25. For EDSR the value was at most 0.25. GIVL: the enrichment ratio turned out to be 9.54. For RQFV, the enrichment ratio was at most 0.25. Under TCIK stands at most 0.25; under NLSW, at most 0.25.

For RLNE, the enrichment ratio is at most 0.25.

VIVE: the enrichment ratio was at most 0.25. Take MCTG: the enrichment ratio was at most 0.25. Take HGVI: the enrichment ratio was determined as 1.24. Consider GSPQ, for which the enrichment ratio is at most 0.25. On to HQTC, for which the enrichment ratio is at most 0.25.

YMMD: the enrichment ratio is at most 0.25. For MLAA the value was at most 0.25; for FICN, at most 0.25; for TNMS, 4.8. Under ASIY stands 3.82; under PGNR, at most 0.25; under ACYL, 0.538. Under MKRM stands at most 0.25; under YVCF, 0.805; under YTQP, at most 0.25.

On to FPGS, for which the enrichment ratio is at most 0.25.

With MIDF, the enrichment ratio was at most 0.25. As for ECRA, the enrichment ratio was at most 0.25.

Regarding CHFG, the enrichment ratio was at most 0.25. Take IMLH: the enrichment ratio was at most 0.25. PYGL: the enrichment ratio is at most 0.25. Under QYCF stands at most 0.25; under VAMN, at most 0.25.

On to AVSE, for which the enrichment ratio was at most 0.25.

Take SGER: the enrichment ratio is at most 0.25. For INTW the value was at most 0.25. Under RPLI stands at most 0.25. As to FQLW, the enrichment ratio was at most 0.25. Under YRCQ stands at most 0.25; under PDEY, at most 0.25. For NVLE the value was at most 0.25; for MYPE, at most 0.25; for SLQL, 5.85. Regarding SQTL, the enrichment ratio amounted to 12.3. RTYN: the enrichment ratio is at most 0.25.

For VSSW, the enrichment ratio is at most 0.25.

For RKSA, the enrichment ratio is at most 0.25. For the variant NCWW, the enrichment ratio is at most 0.25.

Turning to IPYC, the enrichment ratio is at most 0.25.

Consider ISNY, for which the enrichment ratio was at most 0.25. Consider LPYK, for which the enrichment ratio is at most 0.25. Regarding KANF, the enrichment ratio was at most 0.25. With YTLH, the enrichment ratio turned out to be 0.617. In the case of QSGC, the enrichment ratio turned out to be 2.55. Turning to ANHG, the enrichment ratio was at most 0.25. Take IVER: the enrichment ratio is at most 0.25. Under GPSP stands at most 0.25; under DMSD, at most 0.25.

FCEN: the enrichment ratio was at most 0.25. For YTTP the value was at most 0.25; for KRHK, at most 0.25; for VRFD, at most 0.25. In the case of FLIN, the enrichment ratio was at most 0.25. For the variant FCYA, the enrichment ratio is at most 0.25.

As for KEKF, the enrichment ratio is at most 0.25. Under LSTA stands at most 0.25; under PRRM, at most 0.25. For LTLK the value was at most 0.25; for WVWI, at most 0.25.

As to YVAR, the enrichment ratio was at most 0.25. Regarding YWNW, the enrichment ratio was at most 0.25. For GKHQ the value was at most 0.25; for RWQG, at most 0.25; for NCKM, at most 0.25. Under LFWD stands at most 0.25; under YMMM, at most 0.25. For FSLQ the value was 11.8; for FFIR, at most 0.25. For the variant NMNQ, the enrichment ratio is at most 0.25. For MKAR the value was at most 0.25; for STHF, at most 0.25; for PVKL, at most 0.25. In the case of TSPA, the enrichment ratio is at most 0.25. Under TYED stands at most 0.25. As to EGNP, the enrichment ratio was at most 0.25. For AHLK the value was at most 0.25. For the variant YKQC, the enrichment ratio was at most 0.25. For ILLE the value was at most 0.25. Under KAHQ stands at most 0.25; under PRYK, at most 0.25; under NTRY, at most 0.25. With ADWA, the enrichment ratio was at most 0.25.

SEQK: the enrichment ratio is at most 0.25. For GQIN the value was at most 0.25; for SEPG, at most 0.25.

Turning to LYGC, the enrichment ratio was at most 0.25. For IARN the value was at most 0.25; for CCIL, at most 0.25; for DTET, at most 0.25.

Consider VPQY, for which the enrichment ratio was at most 0.25. Turning to GNID, the enrichment ratio is at most 0.25. Under VWHH stands at most 0.25; under YDST, at most 0.25; under TQML, 22.5. For FGHD, the enrichment ratio was at most 0.25. For FKQD the value was at most 0.25; for MDDG, at most 0.25. For LRSP, the enrichment ratio is at most 0.25. Under LLHS stands at most 0.25; under GPPT, at most 0.25; under IEFT, at most 0.25. For QWFT, the enrichment ratio was at most 0.25. Regarding YPEF, the enrichment ratio is at most 0.25.

In the case of YCYP, the enrichment ratio is at most 0.25. Consider SPNQ, for which the enrichment ratio is at most 0.25. As to SMNR, the enrichment ratio was at most 0.25. Take DRQP: the enrichment ratio was at most 0.25. For ECQL the value was at most 0.25. For MFPE the value was at most 0.25; for FRHW, at most 0.25; for NIPN, at most 0.25.

Take YFSL: the enrichment ratio was at most 0.25. For YYHP the value was at most 0.25; for MHEF, at most 0.25; for LVTD, at most 0.25. Under YSVS stands at most 0.25; under KRHG, at most 0.25. As to PWFR, the enrichment ratio is at most 0.25.

For the variant NREL, the enrichment ratio was at most 0.25. For WDCL, the enrichment ratio was at most 0.25. As to FMLQ, the enrichment ratio is at most 0.25. As to GTQF, the enrichment ratio was at most 0.25.

Turning to VETV, the enrichment ratio was 1.5. As for EEGY, the enrichment ratio is at most 0.25. For KERV, the enrichment ratio is at most 0.25. With HWKL, the enrichment ratio was at most 0.25. Under MCDK stands at most 0.25. For LWCY the value was at most 0.25; for GTNR, at most 0.25.

As to IEFK, the enrichment ratio is at most 0.25.

Take DIKL: the enrichment ratio was at most 0.25. Under LWDG stands at most 0.25; under QSAS, at most 0.25; under SHPC, 1.02. For SIEY the value was 1.32; for SGMF, 13.3.

For the origin of these results see a collection of fitness landscapes (doi:10.1126/science.1257360).
